# According to FireProtDB (doi:10.1093/protein/13.10.691):
# Conditions: Gallus gallus; pH 2.7; Thermal; DSC; glycine 0.05 M; reversible: yes
substance,measurement,value
Lysozyme C wild type (no sequence given),Tm,65.6 °C
same,heat capacity change of unfolding,1.58 kcal/mol/K
same,unfolding enthalpy (calorimetric),114 kcal/mol
